Data reported in the supplement of paper PMC4723716.
The full ranking holds about 3,600 compounds; the median of “viability index relative to DMSO control” is about 0.81, and the lowest 2% start at about 0.13. This is one part of the list.

test system: Plasmodium falciparum NF54 stage V gametocytes; experiment: viability index relative to DMSO control (fraction); higher = less gametocyte killing; settings: 1.25 µM, incubation time: 72 h
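Note: 384-well serum-free SaLSSA: MitoTracker Red CMXRos staining with saponin lysis, high-content imaging, treated-well particle count divided by plate-mean count of DMSO wells.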

Row | SMILES | viability index
1 | Fc1ccc2[nH]c3c(N4CCN(C(c5ccccc5)c5ccccc5)CC4)ncnc3c2c1 | 0.623
2 | O=C(C=Cc1ccccc1)NNC(=O)c1cccnc1 | 1.03
3 | COc1ccc(C2(C(=O)NCc3ccccc3Cl)CCCC2)cc1OC | 0.785
4 | CCCn1c(=O)c(C(=O)NCC[N+](CC)(CC)CC)c(O)c2ccccc21 | 0.688
5 | Oc1ccc(-c2cncnc2)cc1CNC1CCN(Cc2ccccc2)CC1 | 1
6 | O=C1CN(C(=O)CCC2CCCC2)C(c2ccc(F)cc2)c2cc(F)ccc2N1 (stereo not drawn) | 0.589
7 | COC(=O)c1ccc(N2C(=O)C3C(C2=O)C2(c4ccccc4)C(=O)C3(c3ccccc3)C(c3ccc(OC)cc3)=C2c2ccc(OC)cc2)cc1 (stereo not drawn) | 0.584
8 | CCOc1ccccc1NC(=O)Nc1ccc2nc(N3CCN(C)CC3)cc(C)c2c1 | 0.787
9 | c1ccc(-c2c3c(cc4ccccc24)C[N+]2(CCCC2)C3)cc1 | 0.985
10 | CCN1C(=Cc2sc3ccccc3[n+]2C)C=Cc2cccc(C)c21 | 0.305
11 | CCOC(=O)c1nnn(-c2nonc2N)c1-c1ccc(OC)cc1 | 0.838
12 | COC(=O)c1ccccc1NC(=O)CN(C)c1nc(-c2ccc(OC)cc2)no1 | 1.21
13 | COc1cccc(CNc2cc(C(=O)NCCNC(C)=O)cc(S(=O)(=O)N(C)C)c2)c1OC | 1.32
14 | CCCOC(=O)C1=C(C)NC2=C(C(=O)CC(c3ccc(Cl)cc3)C2)C1c1ccc(Br)cc1 (stereo not drawn) | 0.536
15 | C(=NNc1nc2ccccc2[nH]1)c1ccccc1 | 0.71
16 | COC(=O)c1ccc(C2C3=C(CC(c4ccc(OC)cc4)CC3=O)Nc3ccccc3N2C(=O)c2ccccc2)cc1 (stereo not drawn) | 0.679
17 | O=C(O)CC/C(=C1/C=C(c2ccc(Cl)cc2)NC1=O)c1ccc(Cl)cc1 | 0.682
18 | Cc1cccc(NC(=S)NC2CC3CCCC(C2)N3CCc2ccccc2)c1 (stereo not drawn) | 0.888
19 | O=C(Cn1c2ccccc2c(=O)c2cc([N+](=O)[O-])ccc21)Nc1ccc(F)c(Cl)c1 | 0.776
20 | CCCN(CCC)C(=O)c1c[nH]c2ccc(S(=O)(=O)N(C)c3ccc(F)cc3)cc2c1=O | 1.25

Row | SMILES | viability index
21 | O=C1CC(=O)Nc2cc(S(=O)(=O)NC3CCCCCCC3)ccc2N1 | 0.938
22 | COc1ccc(N(CC(=O)NCCc2ccc(F)cc2)S(=O)(=O)c2ccccc2)cc1 | 1.05
23 | Brc1ccc2c(c1)c1ccccc1n2CC1CO1 (stereo not drawn) | 0.71
24 | NC(=S)NN=Cc1cc([N+](=O)[O-])ccc1O | 0.176
25 | Cc1ccc2ccc3ccc(C)nc3c2n1 | 0.0302
26 | CSc1nc2nc(C)c(Cc3cccc(F)c3)c(C)n2n1 | 0.877
27 | COc1cccc2cc(C(=O)Nc3cccc(C(F)(F)F)c3)c(=O)oc12 | 0.669
28 | O=[N+]([O-])c1cccc2c1nnn2C12CC3CC(CC(O)(C3)C1)C2 | 0.859
29 | CCCCCCCCCC[n+]1c(C)n(CC)c2cc(Cl)c(Cl)cc21 | 0.559
30 | COc1ccc(OC)c(-c2ccc(O)c(CNCCCN(C)C)c2)c1 | 0.74
31 | Cc1ccc(Cn2c(N3CCC(C(=O)NCc4ccc(F)cc4)CC3)nc3ccccc32)cc1 | 0.55
32 | Cc1cccc(NC(=O)C2C3C=CC4(O3)C2C(=O)N(CC2COc3ccccc3O2)C4C(=O)NC2CCCC(C)C2C)c1 (stereo not drawn) | 1.33
33 | O=C(O)CCCCCNc1ncnc2sc3c(c12)CCCC3 | 0.703
34 | COc1ccc(-c2cnnc(NN=Cc3ccc([N+](=O)[O-])o3)n2)cc1 | 0.0154
35 | CC[n+]1c(C=CN2CCCc3ccccc32)ccc2ccccc21 | 0.54
36 | CCN(CC)CCN(Cc1cc2c(C)cc(C)cc2[nH]c1=O)C(=S)NCCCN(C)C | 0.864
37 | c1ccc2c(NCCc3c[nH]c4ccccc34)c3ccccc3nc2c1 | 0.527
38 | O=C(Nc1ccc(-n2cccn2)cc1)C1CCN(Cc2nc3c(s2)CCCC3)CC1 | 0.942
39 | O=C(Nc1nc(-c2ccccn2)cs1)c1ccc(Oc2ccc(C(=O)Nc3nc(-c4ccccn4)cs3)cc2)cc1 | 0.00826
40 | Cc1ccc(S(=O)(=O)Oc2ccc(C=NN=C(N)N)cc2)cc1 | 0.452

Row | SMILES | viability index
41 | Cc1ccc(CNC(=N)Nc2nc(C)cc(C)n2)cc1 | 0.664
42 | CCOC(=O)c1c(NC(=O)CSc2nnc(CNC(=O)c3cccc(OC)c3)n2C2CCCCC2)sc2c1CCCC2 | 0.78
43 | N=c1c2c(n(Cc3ccccc3Cl)c3c1CCC3)CCCC2 | 0.688
44 | Cc1cc(C)n(-c2ccc(NC(=O)C3CCN(Cc4cc(C)c(C)o4)CC3)cc2)n1 | 0.926
45 | CCc1ccc(-n2nnc(C(=O)Nc3ccccc3Cl)c2C)cc1 | 1.04
46 | CC1(C)CC(NC(=O)Cc2ccc(Cl)cc2)CC(C)(C)N1 | 0.928
47 | O=C(Nc1ccc(-c2cc(-c3ccccc3)nc(-c3ccc(NC(=O)c4cccc([N+](=O)[O-])c4)cc3)n2)cc1)c1cccc([N+](=O)[O-])c1 | 0.693
48 | CCCC1=NN(c2nc3ccccc3s2)C(=O)C1 | 1.21
49 | Cc1ccc(CNC(=O)c2cc3sc(Cl)cc3n2C)cc1 | 0.884
50 | COc1ccc(C2CC(=O)C3=C(C2)NC(C)=C(C(=O)OC(C)C)C3c2ccc(F)cc2)cc1 (stereo not drawn) | 0.472
51 | COc1cc(NC(=O)Cn2c3ccccc3c(=O)c3ccccc32)cc(OC)c1OC | 0.317
52 | CN(C)CCCNc1ncnc2c1[nH]c1ccccc12 | 1.12
53 | CCCCCCCC(O)(c1ccc(OCC)cc1)C(CN1CCCCC1)c1ccccc1 (stereo not drawn) | 1.33
54 | Nc1nonc1-n1nnc(C(=O)NN=Cc2cccc(Cl)c2)c1-c1ccccc1 | 0.623
55 | CCOC(=O)c1sc(=S)n(-c2ccc(N(C)C)cc2)c1N | 0.952
56 | Oc1ccc2ccccc2c1CNc1nc2ccccc2[nH]1 | 0.865
57 | CCN(CC)CCNc1ncnc2c1[nH]c1ccc(F)cc12 | 0.991
58 | CC(C)c1ccc(NC(=O)c2ccc(NCCCN3CCN(c4cccc(Cl)c4)CC3)c([N+](=O)[O-])c2)cc1 | 0.643
